The source of these data is PubChem BioAssay AID463173 (ICCB-Longwood Screening Facility, Harvard Medical School, 2010).

Screen size: about 52,000 compounds; about 1,700 (3.3%) were called active. No stated cut-off is given here; in the data, active means survival mostly below about 52% (no sharp cut-off); inactive means mostly above about 56%. The list shows a part of the results.

The subject of the assay is Wild type. As to the kind of experiment: growth inhibition of S. aureus wild type versus tarO mutant, primary screen, teichoic acid synthesis inhibitors, RN4220, OD600 (AID 463173). To be noted: S. aureus RN4220 wild type/DeltatarO growth, OD600, 18 h, hits give low values, screened at 18.75 µg/mL (by protocol).
As for `O=C(COc1ccc(F)cc1)Nc1ccc(C(=O)OCc2cc(=O)n3nc(C4CC4)sc3n2)cc1`, the survival was inactive: 82%. The figure for `CCOc1ccc(NC(=O)N2CCC(c3ccc(C)cc3)C2)cc1` (stereo not drawn) is inactive: 53%; for `CCn1c(=O)/c(=C2/Sc3ccc(Cl)cc3N2C)s/c1=C1/C(=O)N(C)N=C1C` it is inactive: 89%; for `Cc1ccc(CN(Cc2cccn2-c2nnc(N3CCCC3=O)s2)C(=O)Nc2ccc(F)cc2)cc1` it is inactive: 121%. The value for `Cc1cc(Cl)ccc1OCC(=O)N1CCC(c2nc3ccccc3o2)CC1` was inactive: 44%. The value for `COc1ccccc1CNC(=O)CSCc1nc(-c2ccc(OC)c(OC)c2)oc1C` was inactive: 79%.

Regarding `COC(=O)c1ccc(NC(=O)C(=O)NCCc2csc(-c3ccc(C(F)(F)F)cc3)n2)cc1`, the survival was inactive: 78%. As to `CCOc1ccc(NC(=O)c2sc3nc4c(cc3c2N)CN(Cc2ccccc2)CC4)cc1`, the survival was inactive: 87%. In the case of `Cc1ccc(-n2nc(C(=O)Nc3ccc(Br)cc3C)c(=O)n(C)c2=O)cc1`, the survival is inactive: 95%. On to `Cc1ccc(Cn2ccnc2SCC(=O)Nc2ccccc2C(F)(F)F)cc1`, for which the survival is inactive: 80%.

Consider `COc1ccc(OC)c(NC(=O)CCn2cccn2)c1`, for which the survival is inactive: 60%. In the case of `COc1ccccc1CNC(=O)C1CCN(S(=O)(=O)c2ccc3[nH]c(=O)ccc3c2)CC1`, the survival is inactive: 81%. As for `CCOC(=O)c1ccccc1NC(=O)NCc1cccn1Cc1ccc(F)cc1`, the survival was inactive: 84%. For `CCC(=O)OC1CSc2nc3ccccc3n2C1` (stereo not drawn), the survival is inactive: 102%. The value for `COc1cc(OC)c(NC(=O)Cn2c(SCc3ccccc3F)nc3cccnc32)cc1Cl` was inactive: 66%; that for `O=C1CC(c2cccc(Cl)c2Cl)c2cc3c(cc2N1)OCCO3` (stereo not drawn) was inactive: 107%. As for `Cc1ccccc1Cn1nc(C)c(NC(=O)c2cc(CC(C)C)on2)c1C`, the survival was inactive: 64%. Consider `CCOc1ccc(NC(=O)Cn2c(=O)n(Cc3ccco3)c(=O)c3ccc(C(=O)NC4CCCC4)cc32)cc1`, for which the survival is inactive: 82%. As to `CCc1nn(CC(=O)N2CCN(c3cccc(Cl)c3)CC2)c(=O)c2cc3sccc3n12`, the survival was inactive: 124%.

`CCOc1ccc(NC(=O)Cn2nc(SC)c(S(=O)(=O)c3ccccc3)c2N)cc1`: the survival was inactive: 79%.

On to `CC(=O)c1ccc(N2CCN(c3nc4ccccc4c4nc(-c5cccc(C)c5)nn34)CC2)cc1`, for which the survival was inactive: 70%. The value for `CSc1nc(N)c(C#N)c(C(C)C)c1C#N` was inactive: 111%; that for `O=C(NCCCN1CCCCC1)c1[nH]c2ccccc2c1Sc1ccc(Cl)cc1` was active: -1%. The value for `O=C(CCS(=O)(=O)c1nc(-c2cccs2)cc(C(F)(F)F)n1)Nc1ccc(F)c(Cl)c1` was inactive: 78%; that for `Cc1ccc(NC(=O)C2CCN(S(=O)(=O)c3ccc4c(c3)CCCN4C(=O)C3CCC3)CC2)cc1` was inactive: 126%; that for `Cc1cc(C)nc(NS(=O)(=O)c2ccc(NC(=O)c3nc(SC(C)C)ncc3Cl)cc2)n1` was inactive: 79%. Turning to `Cc1c(Cl)cccc1-n1ncc(C(=O)N2CCC(C)CC2)c1C1CCN(C(=O)OC(C)(C)C)CC1`, the survival is inactive: 47%.

For the compound `NC(=O)C1CCN(C(=O)CSc2nc(O)cc(=O)[nH]2)CC1`, the survival is inactive: 97%. The value for `CC(C)C(NS(=O)(=O)c1ccc2c(c1)oc(=O)n2C)C(=O)NCc1ccccc1` (stereo not drawn) was inactive: 85%; that for `CC(=O)c1ccc(N2CCN(C(=O)c3cc4c(s3)-c3ccccc3OC4)CC2)cc1` was inactive: 87%; that for `CN(C(=O)C1CCN(c2ncnc3c2nc2n3CCCCC2)CC1)c1ccccc1F` was inactive: 60%.

Regarding `COc1ccc(NC(=O)CSc2nc(-c3ccccc3)[nH]c2-c2ccccc2)cc1OC`, the survival is inactive: 69%. The value for `Cc1oc(-c2ccc(C(=O)NCc3ccccc3F)cc2)nc1COc1ccccc1` was inactive: 85%; that for `Nc1cccc(-c2cn3ccccc3n2)c1` was inactive: 95%; that for `COc1cccc(NC(=O)Cn2nnc(C(=O)NCCc3ccccc3)c2N)c1` was inactive: 148%. The figure for `Cn1cnc2c(=O)oc3ccc(S(=O)(=O)N4CCN(c5ccccc5F)CC4)cc3c21` is inactive: 76%; for `O=C(Nc1cccc(C(=O)OCc2cc(=O)n3c4c(sc3n2)CCCC4)c1)c1cccc(Cl)c1` it is inactive: 73%; for `COc1ccc(CCn2c(=O)c3cccnc3n(CC(=O)Nc3ccc(C)cc3C)c2=O)cc1OC` it is inactive: 80%. For `Cn1cc(C(=O)Nc2ccc(C#N)cc2)c2ccccc2c1=O`, the survival is inactive: 89%.

As for `N/C(=N\OCC(=O)Nc1ccccc1)c1nonc1N`, the survival was inactive: 106%. As for `Cc1nc(-c2ccc(S(=O)(=O)N(Cc3ccccc3)C(C)C)cc2)co1`, the survival is inactive: 84%. For `CC(C)OCCCNC(=O)CCCn1c(SCC(N)=O)nc2c(sc3ccccc32)c1=O`, the survival is inactive: 83%. The value for `O=C(CSc1nc2c([nH]c3ccccc32)c(=O)n1-c1ccc(F)cc1)NCc1ccc(F)cc1` was inactive: 73%; that for `CCOc1ccc(CCNC(=O)c2ccc3c(c2)nc2n3CCOC2)cc1OCC` was inactive: 63%; that for `C=CCN=C1SC(C)C(=O)N1S(=O)(=O)c1ccccc1` (stereo not drawn) was inactive: 110%.

Turning to `Cc1ccc(Cl)cc1NC(=O)C1CCN(C(=O)c2cnn(-c3ccccc3)c2-n2cccc2)CC1`, the survival was inactive: 86%. For the compound `CCN(CC)c1cc(C)c2cc(NC(=O)/C=C/c3ccccc3OC(C)C)ccc2n1`, the survival was inactive: 96%. The value for `Cc1ccc(Oc2nc3ccccn3c(=O)c2/C=C(\C#N)c2nc3ccccc3s2)c(C)c1` was inactive: 63%; that for `CCN(CC)c1ccc(NS(=O)(=O)c2ccc(-c3coc(C)n3)cc2)c(C)c1` was inactive: 72%. The figure for `Cc1cc(C)c2c(=O)c3c(oc2c1)C(=O)N(Cc1ccco1)C3c1ccc(F)cc1` (stereo not drawn) is inactive: 83%; for `Cn1c(=O)[nH]c(=O)c2c1nc(NNC=O)n2Cc1ccc(Cl)cc1` it is inactive: 100%.

For the compound `CCOc1ccc(-c2cc(C(=O)NCCc3ccccc3)c3c(-c4ccc(C)cc4)[nH]nc3n2)cc1`, the survival was inactive: 128%.

For the compound `Cc1cc(-c2ccc(C)c(S(=O)(=O)N3c4ccccc4CC3C)c2)on1` (stereo not drawn), the survival was inactive: 73%. The figure for `O=C(NCc1ccc2c(c1)CCN2C(=O)c1ccc(Cl)cc1)c1ccco1` is inactive: 89%; for `CCOC(=O)c1c(NC(=O)/C=C/c2ccc(OCC)cc2)sc2c1CCCC2` it is inactive: 78%. The figure for `O=C(Cn1c(=O)n(-c2ccccc2)c(=O)c2c3c(sc21)CCCC3)Nc1ccccc1` is inactive: 129%; for `Cc1ccc(C2C(C#N)=C(N)N(c3cccnc3)C3=C2C(=O)CCC3)s1` (stereo not drawn) it is inactive: 113%. As for `CC(=O)N1CCc2c(sc3c2c(=O)n(-c2cccc(Cl)c2)c(=O)n3Cc2ccc(F)cc2Cl)C1`, the survival was inactive: 77%.

Consider `Cc1nn(C)c2c1c(C(F)(F)F)cc(=O)n2CC(=O)N1CCN(c2ccccc2F)CC1`, for which the survival was inactive: 72%. The figure for `O=C(O)CSc1nnc(-c2ccc(O)cc2)o1` is inactive: 71%. As for `CCOC(=O)c1noc2nc(C)n(CC(=O)Nc3ccc(OC)c(Cl)c3)c(=O)c12`, the survival was inactive: 80%.

As for `Cc1cc(N2CCC(C(=O)Nc3ccc(Cl)cc3)CC2)n2nc(C)c(-c3ccc(Cl)cc3)c2n1`, the survival is inactive: 80%. The value for `Cc1ccc(CC(=O)Nc2c(C(=O)N3CCN(c4ccccc4)CC3)oc3ccccc23)cc1` was inactive: 76%; that for `CCOC(=O)CSc1nnc2n(-c3ccccc3)c(=O)c3c4c(sc3n12)COC(C(C)C)C4` (stereo not drawn) was inactive: 79%; that for `CS(=O)(=O)c1ccc(-c2nnn(CC(=O)NC3CCCC3)n2)cc1` was inactive: 104%. The value for `S=c1[nH]c2ccccc2n1C1CCCCC1` was inactive: 114%; that for `Oc1ccccc1C1NN=C(c2ccccc2)S1` (stereo not drawn) was inactive: 98%; that for `CCCCN(CC)CCNC(=O)C1CCN(c2nnc(C)c3c(C)n(-c4ccc(C)cc4)nc23)CC1` was inactive: 80%.

`Cc1ccc(Cc2c(C)nc3c(-c4ccccc4)c(C)[nH]n3c2=O)cc1`: the survival is active: -11%. The value for `Cc1cc2c(cc3c(=O)n(CC(=O)NCc4ccccc4Br)ncn32)s1` was inactive: 80%; that for `CCc1c(C)nc2nncn2c1NCc1ccc(OC)cc1` was inactive: 89%.

As to `Cc1[nH]c2ccc(CNS(=O)(=O)c3ccc(S(=O)(=O)N4CCOCC4)cc3)cc2c1C`, the survival is inactive: 120%.

On to `Cc1ccc(-n2nc(C)c3c(C(=O)O)cc(C)nc32)cc1`, for which the survival is inactive: 84%. The figure for `CC(CNC(=O)c1ccc2c(c1)nc1n2CCOC1)c1ccccc1` (stereo not drawn) is inactive: 71%. Consider `O=C(CCS(=O)(=O)c1cccc2nonc12)Nc1cccc(F)c1`, for which the survival is inactive: 68%. Regarding `CC(C)NC(=O)CSc1nc2ccccc2c(=O)n1Cc1ccc(C(=O)NC(C)C)cc1`, the survival is inactive: 79%. For `Cc1cccc(C)c1OCCn1c(C2CC(=O)N(Cc3ccc(F)cc3)C2)nc2ccccc21` (stereo not drawn), the survival is active: -4%.

Regarding `CNCC(O)COc1ccccc1` (stereo not drawn), the survival is inactive: 113%.

Turning to `CN(C)C(=O)COc1ccc(S(=O)(=O)c2ccc(OCC(=O)N(C)C)cc2)cc1`, the survival was inactive: 105%. The value for `O=C(CSc1nc(=O)[nH]c2c1CCC2)NCc1ccc(Cl)cc1` was inactive: 60%; that for `O=S1(=O)C=C(Sc2nnnn2-c2ccccc2)c2ccccc21` was active: -1%. The value for `Cc1noc2ncnc(N3CCN(c4ccccc4F)CC3)c12` was inactive: 77%; that for `CCSc1ncc(Cl)c(C(=O)Nc2ccc(S(=O)(=O)Nc3nccc(C)n3)cc2)n1` was inactive: 89%. The value for `Cc1ccc(Cl)cc1NC(=O)Cn1cc2c(n1)CCCCC2` was inactive: 82%; that for `COc1ccc(CN(Cc2ccco2)c2cnc(S(C)(=O)=O)nc2C(=O)Nc2ccc(C)c(C)c2)cc1` was inactive: 83%; that for `COC(=O)c1ccc(C(=O)Nc2ccc(-c3nc4cc(NC(=O)c5ccc(C(=O)OC)cc5)ccc4o3)cc2)cc1` was inactive: 81%. For the compound `Cc1cccc(CSc2nc3cccnc3n2Cc2ccc(C(=O)NCc3ccco3)cc2)c1`, the survival was inactive: 89%. As for `O=C(CCC1N=C2c3ccccc3N=C(SCc3ccccc3Cl)N2C1=O)N1CCN(c2ccccc2)CC1` (stereo not drawn), the survival is inactive: 65%.
